# Results published in PubChem BioAssay AID485294 (National Center for Advancing Translational Sciences (NCATS), 2010).
# In all, about 370,000 compounds went through this assay and about 150 (0.041%) were called active. The inconclusive results got no clear call from the source; some entries with a clear call stand among them for comparison. Calls come from the whole dose curve; as a rule, active = well fitted inhibition curve with a large enough effect; inconclusive = small, poorly fitted or top-dose-only effect; inactive = flat fitted curve, though single readings scatter. Potencies of inconclusive entries are left out as doubtful fits.
# Molecular target: Beta-lactamase (Escherichia coli (strain K12)) (UniProt P00811)
# Chain of UniProt P00811 (P00811 whole entry, looked up): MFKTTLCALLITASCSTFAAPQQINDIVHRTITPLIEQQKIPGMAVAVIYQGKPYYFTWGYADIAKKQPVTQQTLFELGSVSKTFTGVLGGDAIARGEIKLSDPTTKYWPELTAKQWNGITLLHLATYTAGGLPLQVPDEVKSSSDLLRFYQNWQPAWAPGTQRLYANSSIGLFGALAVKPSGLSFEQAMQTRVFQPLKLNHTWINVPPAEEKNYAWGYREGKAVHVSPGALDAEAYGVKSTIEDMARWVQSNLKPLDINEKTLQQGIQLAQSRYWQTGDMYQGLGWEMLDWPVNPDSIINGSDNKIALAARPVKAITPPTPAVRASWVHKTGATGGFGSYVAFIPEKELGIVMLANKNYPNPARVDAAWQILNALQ
# Test: qHTS Inhibitors of AmpC Beta-Lactamase (assay with detergent); note: nearly all actives have a fitted effect of over 25% in size
# Conditions: AmpC hydrolysis of nitrocefin, absorbance 480 nm, 0.01% Triton; series mostly up to 114 µM
# Outline: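 20 mM phosphate pH 7.0 + 0.01% (detergent screen) or 0.0001% Triton X-100; 5.3 nM AmpC reagent; cpd preinc 15 min RT; nitrocefin (800 uM stock) to start; A480 q20 s × 4 min; Activity was normalised to no-enzyme and no-compound control wells.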
# Potency is the fitted concentration of half-maximal effect; tags give direction and shape of the fitted curve.
row,Structure (SMILES),Potency
1,CS(=O)(=O)N(CC(=O)N1CCOCC1)c1ccc2c(c1)OCO2,"inconclusive [inhibitor, full curve, poor fit]"
2,Cc1ccc(Cl)cc1NC(=O)COC(=O)CC(C)(C)C,"inconclusive [inhibitor, full curve, poor fit]"
3,COc1ccc(C(=O)N/N=C/c2ccc3cccc(O)c3n2)cc1,"inconclusive [inhibitor, single point]"
4,CSC1=N/C(=C\c2ccc(Cl)cc2)C(=O)N1N(C)C,"inconclusive [inhibitor, single point]"
5,CCOc1cc(N2CCOCC2)c(OCC)cc1NC(=O)c1nn(CC)c(=O)c2ccccc12,inactive
6,COc1ccc(C(c2nnnn2CCc2ccccc2)N2CCN(C3CCCC3)CC2)cc1 (configuration not stated),"inconclusive [inhibitor, full curve]"
7,CN1CCC(=O)N([C@H](CN=[N+]=[N-])c2ccccc2)CC1,"inconclusive [inhibitor, full curve]"
8,CCn1c(=O)[nH]c(=O)c2c(N)c(C(=O)c3ccccc3OC)sc21,"inconclusive [inhibitor, full curve, poor fit]"
9,COc1ccc(N2CCN(C(=O)CN3C(=O)C4CC=CCC4C3=O)CC2)cc1 (configuration not stated),"inconclusive [inhibitor, full curve]"
10,Oc1ccccc1N1CCN(c2ncnc3scc(-c4ccccc4)c23)CC1,"inconclusive [inhibitor, full curve, poor fit]"
11,Cc1ccc(OCC(=O)Nc2ccc3nc(SCC(=O)N4CCCC4)sc3c2)cc1,inactive
12,CC(C)C(NS(=O)(=O)c1ccc2c(c1)oc(=O)n2C)C(=O)N1CCN(C2CCCCC2)CC1 (configuration not stated),"inconclusive [inhibitor, full curve]"
13,N=c1sccn1CC(=O)Nc1ccc(S(=O)(=O)N2CCOCC2)cc1,"inconclusive [inhibitor, full curve, poor fit]"
14,O=C(NC1CCN(Cc2ccccc2)CC1)c1ccccc1OCc1ccccc1Cl,inactive
15,O=C(NC1CC1)c1ccc(S(=O)(=O)NC2CCCCCC2)cc1,"inconclusive [inhibitor, partial curve, poor fit]"
16,COc1cc(C(=O)Nc2ccc(S(=O)(=O)NC(C)(C)C)cc2)cc(OC)c1OC,"inconclusive [inhibitor, single point]"
17,CC1=C(C(=O)OCc2ccccc2)C(c2ccc([N+](=O)[O-])cc2)NC(=O)N1CCCCCC(=O)O (configuration not stated),"inconclusive [inhibitor, full curve, poor fit]"
